Laboratory results as given in PubChem BioAssay AID651820 (National Center for Advancing Translational Sciences (NCATS), 2012).
Among all 340,000 compounds or so, about 12,000 (3.5%) were called active. Inconclusive results, whose numbers are uncertain, are shown with a selection of clear calls. Calls follow the shape of the dose curve; as a rule, active = well fitted inhibition curve with a large enough effect; inconclusive = small, poorly fitted or top-dose-only effect, or another doubt; inactive = no such curve, though single readings can be large or run the other way. Potencies of inconclusive entries are left out as doubtful fits.

assay: qHTS Assay for Inhibitors of Hepatitis C Virus (HCV); conditions: Huh7.5.1 HCVcc-Cre (HCVcc is cell-culture hepatitis C virus) infection, luciferase reporter, 44 h; activity change, negative = inhibition: at 41.8 µM (top of the series) unless noted
Outline: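 Reporter virus HCVcc-Cre (~0.5 moi) infects cells exposed to compound; seeding density 1,000 cells/well with 4 h settling beforehand. Luminescence, 15 sec read, taken 44 h post-infection following a 15 min RT substrate incubation.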
% is scaled to controls: 0 for no effect and ±100 for the full control effect; potency is read from the fitted curve at half-maximal effect; tags tell the direction and shape of the fitted curve.

Row | Structure (SMILES) | Potency | activity change, negative = inhibition
1 | Cn1cc(CN2CCC(C(O)c3cccs3)CC2)c(-c2ccccc2F)n1 (configuration not stated) | inactive | –
2 | COc1ccc(NC(=O)c2cc(S(=O)(=O)N3CCCC3)ccc2OC)cc1 | inactive | –
3 | COc1ccc(N2C(=O)NC(=O)/C(=C/c3cccc(OC(=O)c4cccs4)c3)C2=O)cc1Cl | inactive | –
4 | Cc1cc(C(=O)OCC(=O)NCc2ccccc2)c2ccccc2n1 | inactive | –
5 | ON=C1CCCCCCCC1 | inactive | –
6 | Cc1cc(C)c(NC(=O)CSc2nnc(Cc3cccn3C)n2-c2ccc(F)cc2)c(C)c1 | inconclusive [inhibitor, partial curve] | –
7 | CCN1CCN(CCc2nc3cc(NC(=O)COc4ccc(Cl)cc4)ccc3n2C)CC1 | inconclusive [inhibitor, single point] | –
8 | Cc1cc(C(=O)CN2CCN(CC(=O)Nc3cccc(F)c3)CC2)c(C)n1C1CC1 | inactive | –
9 | Clc1ncnc2c1oc1ccccc12 | inconclusive [inhibitor, single point] | –
10 | CCN(CC)P(=O)(NC(=O)c1cccn1C)N(CC)CC | inactive | –
11 | COc1ccccc1CC(=O)OC(C)C(=O)Nc1ccc(S(=O)(=O)N2CCCCC2)cc1 (configuration not stated) | inconclusive [inhibitor, single point] | –
12 | CSc1ncccc1C(=O)Nc1nc2ccc(Oc3ccccc3)cc2s1 | inconclusive [inhibitor, single point] | –
13 | COc1ccc(C(=O)Nc2nnc(Cc3ccc(OC)c(OC)c3)s2)cc1 | inactive | –
14 | COc1ccccc1C(=O)Nc1ccc(OCc2nnc3c4ccccc4c(C)nn23)cc1 | inconclusive [inhibitor, partial curve] | –
15 | COc1ccc(C(C(=O)Nc2ccc(F)cc2)N(C(=O)Cn2nnc3ccccc32)C2CC2)cc1 (configuration not stated) | inconclusive [inhibitor, single point] | –
16 | O=C(c1ccc2c(=O)n3c(nc2c1)CCCCC3)N1CCN(c2ccc([N+](=O)[O-])cc2)CC1 | inconclusive [inhibitor, partial curve] | –
17 | Fc1ccccc1OCCCCCCN1CCCC1 | active: 7.94 µM | –
18 | OC1(c2ccc(Cl)cc2)CCN(Cc2cn[nH]c2-c2ccc(F)cc2)CC1 | active: 8.91 µM | –
19 | COc1ccc(CN(C)C(C)C(=O)Nc2ccc(S(=O)(=O)N3CCCCC3)cc2)c(OC)c1 (configuration not stated) | inconclusive [inhibitor, partial curve] | –
20 | CC(=O)Nc1nc(C)nc(-c2ccccc2OC(C)=O)n1 | inconclusive [inhibitor, partial curve, poor fit] | –
21 | COc1cc(-c2ccc3sc(-c4ccsc4)c(C#CCO)c3c2)cc(OC)c1OC | active: 3.16 µM | –
22 | COc1ccc(-c2noc3c2-c2nc(-c4ccccc4F)sc2CC3)cc1 | inconclusive [inhibitor, single point] | –
23 | COc1ccc(-n2cnc3c(sc4nccc(N(C)C)c43)c2=O)cc1 | inconclusive [inhibitor, partial curve] | –
24 | O=C(NCCc1csc(-c2ccc(C(F)(F)F)cc2)n1)c1cccs1 | inconclusive [inhibitor, single point] | –

Row | Structure (SMILES) | Potency | activity change, negative = inhibition
25 | Cc1ccc2c(Cl)c(C(=O)NCC3CCCO3)sc2c1 (configuration not stated) | active: 2.24 µM | –
26 | COc1cc(C2C(C#N)=C(N)Oc3c2ccc2ccccc32)ccc1OCC(=O)Nc1cccc(C)c1 (configuration not stated) | inconclusive [inhibitor, partial curve] | –
27 | COc1ccc(S(=O)(=O)Nc2cccnc2)cc1 | inactive | –
28 | O=C(Cc1cccs1)Nc1nc(-c2ccccc2)cs1 | inconclusive [inhibitor, single point] | –
29 | O=C(c1cc(C2CC2)nn1-c1ccccc1)N1CCN(Cc2c(F)cccc2Cl)CC1 | inconclusive [inhibitor, single point] | –
30 | CCOc1ccccc1NC(=O)COC(=O)c1c(CC)noc1C | inconclusive [inhibitor, single point] | –
31 | COc1ccc(OC)c(C2/C(=C(/O)c3cnn(-c4ccccc4)c3C)C(=O)C(=O)N2CCN(C)C)c1 (configuration not stated) | inconclusive [inhibitor, partial curve] | –
32 | CCc1cc2c(=O)[nH]cnc2s1 | inactive | –
33 | CCc1nnc(NC(=O)C=C(C)C)s1 | inactive | –
34 | FC(F)Sc1ccc(NC(=S)NC(c2ccccc2)c2ccccc2)cc1 | inconclusive [inhibitor, single point] | –
35 | O=C(CCC1COc2ccccc2O1)NC1CCCCC1 (configuration not stated) | inconclusive [inhibitor, single point] | –
36 | COc1cccc(-c2noc(CCC(=O)NCCc3ccccc3)n2)c1 | inactive | –
37 | CCOc1ccc(C(=O)Nc2cccc(C(C)=O)c2)cc1[N+](=O)[O-] | inconclusive [inhibitor, full curve] | –
38 | COc1ccccc1Nc1nc(N)nc(CCl)n1 | active: 4.47 µM | –
39 | CCS(=O)(=O)N1CCC(C(=O)Nc2cc(C)ccc2O)CC1 | inactive | –
40 | COC(=O)[C@]1(C)N[C@H](c2ccc(-c3ccc(F)cc3)cc2)[C@@H]2C(=O)N(C)C(=O)[C@@H]21 | inactive | –
41 | CC1CCCC(NC(=O)CCS(=O)(=O)c2ccc3c(c2)NC(=O)CS3)C1C (configuration not stated) | inactive | –
42 | S=c1[nH]nc(-c2cccs2)n1/N=C/c1cn(-c2ccccc2)nc1-c1ccc(Cl)cc1 | – | inconclusive: -83.1% [inhibitor]
43 | O=S(=O)(c1ccc(Oc2ccc(S(=O)(=O)N3CCOCC3)cc2)cc1)N1CCOCC1 | inconclusive [inhibitor, partial curve, poor fit] | –
44 | Cc1cccc(OC(C)C(=O)NC2CCS(=O)(=O)C2)c1C (configuration not stated) | inactive | –
45 | CN(C)Cc1c(-c2ccc(Cl)cc2)nc2ccc(Cl)cn12 | inconclusive [inhibitor, single point] | –
46 | O=C(CN(C(=O)Cn1nnc(-c2cccs2)n1)c1ccc2c(c1)OCCO2)NCc1ccccc1 | inconclusive [inhibitor, partial curve, poor fit] | –
47 | Cc1cc(C(=O)COC(=O)Cn2c(C(F)(F)F)nc3ccccc32)c(C)n1Cc1ccco1 | inactive | –
48 | COc1ccc(CCNC(=O)c2ccc3c(c2)N(Cc2ccccc2)CCS3)cc1OC | active: 10 µM | –

Row | Structure (SMILES) | Potency | activity change, negative = inhibition
49 | COc1ccc(-c2c(C)nn3c(N4CCCCCC4)cc(C)nc23)cc1OC | active: 11.2 µM | –
50 | Cc1ccc(C2C3CSCC=C3C(C#N)=C(N)C2(C#N)C#N)cc1 (configuration not stated) | inactive | –
51 | C=CCC(COCc1ccccc1)NS(=O)(=O)c1ccccc1Br (configuration not stated) | inactive | –
52 | CCOC(=O)c1cc(C(=O)c2cc(Cl)ccc2O)coc1=N | inactive | –
53 | CCCCNC(=O)CCC(=O)Nc1ccc2nc(N3CCCCC3)cc(C)c2c1 | inconclusive [inhibitor, single point] | –
54 | NNC(=O)CP(=O)(c1ccccc1)c1ccccc1 | inactive | –
55 | Cc1ccc2[nH]c(=O)c(CN(CCCN(C)C)C(=O)Nc3cccc(Cl)c3)cc2c1 | inconclusive [inhibitor, single point] | –
56 | CC1(C)CC(=O)/C(=N/Nc2ccc(Cl)cc2)CO1 | inconclusive [inhibitor, partial curve] | –
57 | CC12CCC3C(=CCc4cc(O)ccc43)C1CC(=NO)C2O (configuration not stated) | inactive | –
58 | COc1ccc(OC)c(NC(=O)c2csc(Cl)c2OC)c1 | inconclusive [inhibitor, partial curve] | –
59 | O=C(Nc1nccc(-c2cccs2)n1)c1cccs1 | inconclusive [inhibitor, single point] | –
60 | COc1ccc(CNC(=O)C2CCN(S(=O)(=O)c3ccc4c(c3)NC(=O)C(C)S4)CC2)cc1 (configuration not stated) | inconclusive [inhibitor, single point] | –
61 | Cc1nc(C(=O)Nc2ccc(Cl)cc2)sc1C1(C)CC(c2cccc([N+](=O)[O-])c2)=NO1 (configuration not stated) | inconclusive [inhibitor, partial curve] | –
62 | Cc1sc2nc(CN3CCCC3)nc(Cl)c2c1C | inconclusive [inhibitor, single point] | –
63 | CCSC1=N/C(=C\c2cccnc2)C(=O)N1c1ccccc1 | inconclusive [inhibitor, partial curve] | –
64 | O=[N+]([O-])c1ccc(NCCCNS(=O)(=O)c2ccccc2)cc1 | inconclusive [inhibitor, single point] | –
65 | CCOC(=O)N1CCC(N2C(=O)c3ccc(C(=O)Nc4cccc(OC)c4)cc3C2=O)CC1 | inactive | –
66 | COc1ccc(Oc2ccc(N/C=C3/CCCC3=O)cc2)cc1 | inconclusive [inhibitor, partial curve] | –
67 | CCOc1ccc(NCc2cccn2-c2nnc(N3CCC(C(=O)NCCCN4CC(C)CC(C)C4)CC3)s2)cc1 (configuration not stated) | inconclusive [inhibitor, single point] | –
68 | Cc1c(C(=O)N2CCN(c3ccccc3F)CC2)sc2nc(-c3ccccc3)cn12 | inconclusive [inhibitor, single point] | –
69 | COc1ccc(N2CCN(C(=O)CN(c3ccccc3)S(=O)(=O)c3ccc(OC)cc3)CC2)cc1 | inconclusive [inhibitor, single point] | –
70 | Cc1ncn(-c2ccc(C(=O)Oc3ccccc3)cn2)n1 | inconclusive [inhibitor, partial curve, poor fit] | –
71 | COc1ccc(-c2csc(Nc3cccnc3)n2)cc1OC | inconclusive [inhibitor, full curve] | –
72 | Cc1ccc(NC(=O)CNc2ccc(OC(C)C)cc2)c(C)c1 | inconclusive [inhibitor, single point] | –
